One test concerns the target T1, mu-opioid receptor (MOR) (Rattus norvegicus, UniProt P33535).
T1 construct: expressed in transfected cells; host or cells: C6 rat glioma cells (C6-MOR), stably transfected
Format: binding.

The target of test [1] is T2, kappa-opioid receptor (KOR) (Homo sapiens, UniProt P41145).
T2 construct: expressed in transfected cells
Briefly: Radioligand binding, displacement of [3H]diprenorphine, CHO-KOR membranes.

Peptide text beside a SMILES is read from it.

T1 sequence (P33535 whole entry): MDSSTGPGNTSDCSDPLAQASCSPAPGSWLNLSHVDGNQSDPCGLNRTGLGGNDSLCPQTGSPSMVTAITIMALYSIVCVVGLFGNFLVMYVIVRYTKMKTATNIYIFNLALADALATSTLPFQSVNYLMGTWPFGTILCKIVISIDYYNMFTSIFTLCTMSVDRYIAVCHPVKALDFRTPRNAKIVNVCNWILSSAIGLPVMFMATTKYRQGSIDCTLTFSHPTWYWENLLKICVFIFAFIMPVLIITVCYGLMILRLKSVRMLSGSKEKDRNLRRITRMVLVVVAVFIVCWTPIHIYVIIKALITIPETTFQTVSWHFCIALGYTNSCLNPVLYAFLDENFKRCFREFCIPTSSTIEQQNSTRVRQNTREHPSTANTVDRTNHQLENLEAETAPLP
T2 sequence (P41145 whole entry): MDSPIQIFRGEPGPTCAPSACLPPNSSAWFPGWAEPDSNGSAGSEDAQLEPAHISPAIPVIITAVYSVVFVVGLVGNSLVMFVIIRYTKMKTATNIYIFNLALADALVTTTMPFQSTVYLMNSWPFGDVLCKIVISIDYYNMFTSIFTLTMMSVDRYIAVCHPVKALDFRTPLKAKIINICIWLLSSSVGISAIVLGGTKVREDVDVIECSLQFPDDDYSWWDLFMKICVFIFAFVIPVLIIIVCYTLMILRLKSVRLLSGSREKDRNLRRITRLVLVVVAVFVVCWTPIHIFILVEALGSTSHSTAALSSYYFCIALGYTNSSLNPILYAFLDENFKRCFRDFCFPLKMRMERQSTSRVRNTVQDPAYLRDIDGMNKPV

For `Cc1cc(O)cc(C)c1C[C@H](N)C(=O)N1Cc2ccccc2C[C@H]1C(=O)NCC(=O)NCc1ccccc1` [Dmt-Tic-Gly-NH-Bzl, reference compound] (HELM PEPTIDE1{[Cc1cc(O)cc(C)c1C[C@H](N)C(=O)[*:2]].[Tic].G.[c1ccc(CN[*:1])cc1]}$$$$V2.0; N-terminus assumed), the “decrease in affinity to MOR relative to DOR” value on mu-opioid receptor (MOR) stood at 130 fold. The “decrease in affinity to KOR relative to DOR” value in test [1] is given as 640 fold.

The values are drawn from US9045526B2 (THE REGENTS OF THE UNIVERSITY OF MICHIGAN, priority 2011, dated 2015).
